Assay results: the supplement of paper PMC10126150
Sequences with one replicate were seen in a single cluster, so their values are uncertain.

The sequences below were run on ATP (assay: switch fluorescence ratio, 500 uM ATP over buffer (Cy3 cluster intensity, sum of 5 cycles each) (fold (ratio)); higher = stronger signal-on switching upon ATP binding; sequences stand for … in TCGTCGGCAGCGTCAGATGTGTATAAGAGACAGTTTTTTTTTTTTTTTTTTTTTTTTT…TC). Conditions: aptamer strand: ATP DNA aptamer (quencher-CACCTGGGGGAGTATTGCGGAGGAAGG + anchor), 100 nM annealed; ATP concentration: 500 uM; one replicate.
Method in brief: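 Five buffer/ATP imaging cycles were run on Cy3-labelled switching-strand clusters on a modified Illumina MiSeq flow-cell, with NaOH stripping and re-annealing between cycles. In each cycle, clusters annealed to 100 nM quencher-labelled ATP aptamer were imaged in selection buffer, then after 15 min with 500 uM ATP at 22 °C. Per cluster, the fluorescence ratio is summed target-cycle over summed buffer-cycle Cy3 intensity, averaged per switch-domain sequence. Only clusters within 100-1000 RFU were kept.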
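Note: ATP exposure 15 min at 22 °C before imaging.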

Row | Sequence | switch fluorescence ratio
1 | GAGGACCTCC | 0.941
2 | GAGGAGAATC | 0.988
3 | GAGGAGAGC | 1.03
4 | GAGGAGCTAT | 1.05
5 | GAGGAGGCG | 0.963
6 | GAGGATAGCA | 1.03
7 | GAGGATTAGT | 1.02
8 | GAGGCAGTAA | 3.2
9 | GAGGCCAGTC | 1.06
10 | GAGGCCCGGA | 1.06
11 | GAGGCCCTC | 0.993
12 | GAGGCGACGA | 1
13 | GAGGCGCCAA | 1.02
14 | GAGGCGGT | 1.01
15 | GAGGCTCCTT | 0.991
16 | GAGGCTCTTC | 0.98
17 | GAGGGACCAG | 0.976
18 | GAGGGAGTCA | 1.02
19 | GAGGGATAAC | 1.04
20 | GAGGGATAAG | 1
21 | GAGGGCCGAG | 0.954
22 | GAGGGCGAGG | 0.993
23 | GAGGGCTGAC | 1.16
24 | GAGGGGAAG | 0.953
25 | GAGGGGCAT | 0.989
26 | GAGGGGGTAT | 0.991

Row | Sequence | switch fluorescence ratio
27 | GAGGGTATGC | 0.98
28 | GAGGGTGAGG | 0.989
29 | GAGGGTTTA | 0.99
30 | GAGGTACAAG | 1.06
31 | GAGGTATAGA | 1.03
32 | GAGGTATTAA | 0.985
33 | GAGGTCAG | 1.04
34 | GAGGTCGGGG | 1.03
35 | GAGGTCTTAC | 1.03
36 | GAGGTCTTGT | 1.05
37 | GAGGTGCAGA | 0.966
38 | GAGGTGTAAC | 0.998
39 | GAGGTTCAT | 1.02
40 | GAGGTTGCTA | 0.998
41 | GAGTAAATG | 1
42 | GAGTAAGTGA | 1
43 | GAGTACAGGC | 1.08
44 | GAGTACGAAC | 1.03
45 | GAGTACGGAA | 1.37
46 | GAGTACGTGA | 1.14
47 | GAGTAGAGGA | 1.07
48 | GAGTAGGATA | 0.996
49 | GAGTAGGTAC | 1.2
50 | GAGTAGGTAT | 1.02
51 | GAGTAGTTTC | 0.955
52 | GAGTATTGTC | 1.04

Row | Sequence | switch fluorescence ratio
53 | GAGTATTTCA | 1.04
54 | GAGTCAAGGC | 1.08
55 | GAGTCACGCC | 1.05
56 | GAGTCACGCG | 1.03
57 | GAGTCCACCT | 1.12
58 | GAGTCCGGCA | 1.27
59 | GAGTCGGGAT | 1
60 | GAGTCGTTCC | 1.11
61 | GAGTCTTCAA | 1.03
62 | GAGTGAATAG | 0.998
63 | GAGTGACATG | 1.05
64 | GAGTGCATTC | 1
65 | GAGTGCCTTG | 1.02
66 | GAGTGCTGTG | 0.944
67 | GAGTTACCTG | 0.994
68 | GAGTTAGAG | 1.01
69 | GAGTTAGCGG | 0.994
70 | GAGTTGATTA | 1.01
71 | GAGTTGCCTT | 0.949
72 | GAGTTGCGGG | 1.03
73 | GAGTTTCAGC | 0.943
74 | GAGTTTGCGC | 1.01
75 | GAGTTTGTAC | 1
76 | GATAAACCGT | 1.08
77 | GATAACCACT | 0.998
78 | GATAACCATT | 0.985

Row | Sequence | switch fluorescence ratio
79 | GATAACCG | 1.05
80 | GATAACGACC | 1.22
81 | GATAAGACGG | 1.01
82 | GATAAGATTT | 1.04
83 | GATAATTAAT | 1.18
84 | GATAATTCCA | 0.987
85 | GATACAGCCC | 1.06
86 | GATACCGCTT | 1.54
87 | GATACGAACA | 1.46
88 | GATACGACCT | 2.07
89 | GATACGAGAG | 1.06
90 | GATACGGAAA | 1.03
91 | GATACGGTCT | 1.08
92 | GATACGT | 1.07
93 | GATAGATGAT | 0.985
94 | GATAGGAGG | 1.01
95 | GATAGGATGC | 1.01
96 | GATAGGCTTA | 0.993
97 | GATAGGGAGA | 1.03
98 | GATAGGGGCC | 0.981
99 | GATAGGGTGG | 0.953
100 | GATAGTACAG | 1.07
101 | GATAGTCATC | 1.02
102 | GATAGTGTCT | 0.998
103 | GATATAATAA | 0.941
104 | GATATAGCAA | 1.02

Row | Sequence | switch fluorescence ratio
105 | GATATAGCTG | 1.01
106 | GATATATTC | 1
107 | GATATCAAGA | 1.04
108 | GATATCAGT | 0.984
109 | GATATCATGG | 1.08
110 | GATATCCATT | 1
111 | GATATCGGTG | 0.988
112 | GATATCGTTT | 1.02
113 | GATATCTGTT | 0.967
114 | GATATGTCGT | 0.976
115 | GATATTAATA | 0.995
116 | GATATTATCT | 1.01
117 | GATATTCAAA | 1.03
118 | GATATTGTAC | 1.04
119 | GATCAAAATG | 0.983
120 | GATCAAACCC | 0.984
121 | GATCAACCAG | 1.05
122 | GATCAAGTTT | 0.984
123 | GATCACTGCT | 0.968
124 | GATCAGCCGG | 0.992
125 | GATCAGTAAG | 1.01
126 | GATCATCTGT | 1.01
127 | GATCCCCTGC | 1.01
128 | GATCCCTCTA | 0.975
129 | GATCCGGCAC | 1.45
130 | GATCCGGGCC | 1.01

Row | Sequence | switch fluorescence ratio
131 | GATCCTACTG | 1.1
132 | GATCGAGAAT | 0.998
133 | GATCGCATGG | 0.984
134 | GATCGCGTTA | 1
135 | GATCGTACGG | 1.6
136 | GATCGTGACC | 1.06
137 | GATCGTTATG | 1.01
138 | GATCTAAATA | 1.01
139 | GATCTCAGGC | 0.969
140 | GATCTCTTTG | 0.973
141 | GATCTGCGGG | 0.95
142 | GATCTGCTCA | 1.01
143 | GATCTGTTGA | 0.981
144 | GATCTTCATT | 0.961
145 | GATGACCGCC | 1.22
146 | GATGACCGGG | 1.01
147 | GATGAGGGTC | 1
148 | GATGAGTATT | 1
149 | GATGATACTA | 1.01
150 | GATGATATT | 0.99
151 | GATGATGACA | 1
152 | GATGATTGAC | 1.04
153 | GATGCACATC | 1.07
154 | GATGCAGGGT | 1.01
155 | GATGCGCCGA | 0.97
156 | GATGCTTTGC | 1.07

Row | Sequence | switch fluorescence ratio
157 | GATGGACCC | 1.03
158 | GATGGAGCCG | 1.01
159 | GATGGATCTC | 1.03
160 | GATGGCGCAA | 1.29
161 | GATGGCTCCA | 1.02
162 | GATGGCTGGC | 1.14
163 | GATGGGCAAG | 1.02
164 | GATGGGTGCT | 1.02
165 | GATGGTAGGA | 1
166 | GATGGTTAAG | 1.03
167 | GATGTAGGGT | 0.973
168 | GATGTAGTT | 1.01
169 | GATGTCGATC | 1.02
170 | GATGTGACAT | 1
171 | GATGTGAGCG | 1.02
172 | GATGTGCGTA | 0.957
173 | GATGTGGTAT | 1.01
174 | GATGTGTCGG | 0.978
175 | GATGTTGGTC | 1.01
176 | GATGTTGTAA | 1.08
177 | GATTAAGAGA | 0.957
178 | GATTAAGTCT | 0.993
179 | GATTAATGG | 1.03
180 | GATTACATCC | 1.07
181 | GATTACGCAC | 1.58
182 | GATTAGCGGC | 1.05

Row | Sequence | switch fluorescence ratio
183 | GATTAGGCAA | 1.04
184 | GATTAGGGGC | 0.946
185 | GATTAGGTTC | 0.979
186 | GATTATAATG | 1
187 | GATTATGGGA | 0.987
188 | GATTATGTCT | 0.958
189 | GATTCACGCG | 1.02
190 | GATTCACTGA | 1.02
191 | GATTCAGCGT | 1
192 | GATTCCCTG | 0.99
193 | GATTCCGAAG | 2.1
194 | GATTCCGGTT | 1.07
195 | GATTCGGGTT | 0.96
196 | GATTCTATGG | 0.973
197 | GATTCTCGTC | 1.01
198 | GATTGAGTCA | 0.958
199 | GATTGCAATG | 1.1
200 | GATTGCACGG | 1.07
201 | GATTGCAGT | 1.01
